Experimental data published in PubChem BioAssay AID1345082 (National Center for Advancing Translational Sciences (NCATS), 2018).
Screen size: about 94,000 compounds; about 4,000 (4.3%) were called active. The shares of active, inactive and inconclusive entries below differ from those in the screen. The call rests on the fitted dose curve; in most records, active means well fitted inhibition curve with a large enough effect; inconclusive means small, poorly fitted or top-dose-only effect; inactive means no such curve, though single readings can be large or run the other way. A potency beside an inconclusive call is a rough fit, not a confirmed value.

Assay: Cytotoxic Profiling in NIH 3T3 Cell Line of Diverse Libraries Using Quantitative High-Throughput Screening; further: nearly all actives have a fitted effect of over 55% in size
Conditions: NIH 3T3 viability, CellTiter-Glo ATP luminescence, 48-72 h; activity change, negative = cytotoxicity: at 96.7 µM (top of the series) unless noted; series mostly up to 96.7 µM
In short: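 Viability of NIH 3T3 cells after 48 or 72 hr compound treatment at 37 °C was assessed by CellTiter-Glo, with luminescence imaged following a 10 min room-temperature step.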
On the % scale 0 is the no-effect control and ±100 the full control effect; potency means the concentration at half of the fitted maximal effect; tags describe the fitted curve by direction and shape.

| SMILES | activity change, negative = cytotoxicity | Potency |
| --- | --- | --- |
| COc1ccc(C(=O)N[C@@H]2CCC[C@@H]2C(=O)N2CCOCC2)cn1 | inactive: 1.38% | – |
| COc1ccc(-c2ccc(C(=O)N3CCN(C(=O)c4ccccc4Cl)CC3)cc2)nn1 | inactive: -25.2% | – |
| O=C(NCC1CCCO1)c1ccc(Cn2ccn3nc4c(c3c2=O)CCCC4)cc1 (configuration not stated) | – | inconclusive: 31.6 µM [inhibitor, partial curve, poor fit] |
| O=S(=O)(c1ccc(Cl)s1)N1CCC(n2cnnc2C2CC2)CC1 | – | inconclusive: 79.4 µM [inhibitor, partial curve, poor fit] |
| CCc1ccc(CN2CCC(O)(Cc3cc(-c4cccc(OC)c4)no3)CC2)o1 | – | inconclusive: 50.1 µM [inhibitor, partial curve, poor fit] |
| COc1ncccc1-c1ncc2c(n1)OCCN(c1ccccc1)C2=O | – | inconclusive: 70.8 µM [inhibitor, partial curve, poor fit] |
| Cc1nc(N2CCN(C(=O)c3ccc(F)c(Cl)c3)CC2)cc(C(F)(F)F)n1 | inactive: -21.6% | – |
| c1ccc(-c2cc3c(cn2)NCCN(Cc2ccccn2)C3)cc1 | inactive: -19.4% [at 138 µM] | – |
| O=C(CCC1CCN(S(=O)(=O)c2ccccc2)CC1)NCc1cccc(F)c1 | – | inconclusive: 50.1 µM [inhibitor, single point] |
| Cn1cccc1C(=O)NC[C@H]1O[C@@H](CO)[C@@H](O)C1N1CCN(c2ccccc2)CC1 (some centres not stated) | – | inconclusive: 50.1 µM [inhibitor, partial curve, poor fit] |
| O=C(NCc1ccc(C(F)(F)F)cc1)[C@@H]1Cc2nc[nH]c2CN1Cc1ccc([N+](=O)[O-])cc1 | – | inconclusive: 79.4 µM [inhibitor, partial curve, poor fit] |
| O=C1COc2ccc(-c3ccccc3)nc2CN1Cc1ccccc1 | – | inconclusive: 89.1 µM [inhibitor, partial curve, poor fit] |
| Cc1nn(-c2ccccc2)c2c1C(C(C)C)N(C1CCN(C(=O)N3CCOCC3)C1)C2=O (configuration not stated) | – | inconclusive: 44.7 µM [inhibitor, partial curve, poor fit] |
| Cc1ccc(NC(=O)N2CCC(OC3CCN(S(C)(=O)=O)CC3)CC2)cc1Cl | – | inconclusive: 10 µM [inhibitor, full curve, poor fit] |
| COc1ccc(Nc2ccnc(N3CCC(C(=O)NCC4CC4)CC3)n2)cc1 | – | active: 39.8 µM |
| O=C(CC1CCCC1)N1CCC(c2nc(CCOc3ccc(F)cc3)no2)C1 (configuration not stated) | – | inconclusive: 31.6 µM [inhibitor, full curve] |
| O=c1[nH]c(C2CCN(Cc3ccc(Cl)cc3)CC2)nc2ccc(F)cc12 | – | inactive |
